In publication PMC6349883, “Directed evolution of super-secreted variants from phage-displayed human Interleukin-2” (Scientific Reports, 2019):

Tests used:
[1] = biological target: T1, mouse CD25 (IL-2R alpha subunit), recombinant, R&D (mouse, UniProt P01590 22-236); assay: ELISA; Fc-fusion proteins incubated on polyvinyl chloride microplates coated with the recombinant IL-2R subunits (R&D); bound proteins detected with anti-human Fc antibody conjugated to horseradish peroxidase; details: both partners purified
T1 construct: Interleukin-2 receptor subunit alpha (CD25), mouse, recombinant extracellular region; source: bought: R&D
T1 sequence (looked up): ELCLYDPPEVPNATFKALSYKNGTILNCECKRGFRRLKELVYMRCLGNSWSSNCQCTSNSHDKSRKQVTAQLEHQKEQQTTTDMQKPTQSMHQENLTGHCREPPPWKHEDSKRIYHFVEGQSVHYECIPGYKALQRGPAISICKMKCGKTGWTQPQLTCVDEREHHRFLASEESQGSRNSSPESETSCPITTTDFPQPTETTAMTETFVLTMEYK

[2] = biological target: T2, human CD25 (IL-2R alpha subunit), recombinant, R&D (human, UniProt P01589 22-240); assay: as above; details: both partners purified
T2 construct: Interleukin-2 receptor subunit alpha (CD25), human, recombinant extracellular region; also called alpha receptor subunit; source: bought: R&D
T2 sequence (looked up): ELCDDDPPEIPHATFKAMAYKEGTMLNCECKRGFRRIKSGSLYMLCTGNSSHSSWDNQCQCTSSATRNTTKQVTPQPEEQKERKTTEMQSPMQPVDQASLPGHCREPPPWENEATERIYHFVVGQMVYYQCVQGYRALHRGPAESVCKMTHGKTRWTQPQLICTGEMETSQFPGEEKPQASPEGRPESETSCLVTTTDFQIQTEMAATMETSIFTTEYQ

- binding result [1]: binds
- binding result [2]: binds
B1: IL-2 (K35E)/human Fc fusion protein (Fc fusion)
chain: not shown
notes: Interleukin-2, human, with K35E; Predominantly a homodimer by SEC, due to the Fc moiety; 80 kDa; also called K35E IL-2/Fc; IL-2 K35E/Fc; not shown: Fc (human IgG1), C-terminal, kept
